The values that follow come from paper PMC4336329 (PLoS ONE, 2015).

Screen size: about 310,000 compounds; about 2,200 (0.71%) showed an effect of 50% or more. The effect is printed as a negative number. Some of the results follow.

Chain of human ether-à-go-go-related gene (hERG) potassium channel (Q12809 whole entry, looked up): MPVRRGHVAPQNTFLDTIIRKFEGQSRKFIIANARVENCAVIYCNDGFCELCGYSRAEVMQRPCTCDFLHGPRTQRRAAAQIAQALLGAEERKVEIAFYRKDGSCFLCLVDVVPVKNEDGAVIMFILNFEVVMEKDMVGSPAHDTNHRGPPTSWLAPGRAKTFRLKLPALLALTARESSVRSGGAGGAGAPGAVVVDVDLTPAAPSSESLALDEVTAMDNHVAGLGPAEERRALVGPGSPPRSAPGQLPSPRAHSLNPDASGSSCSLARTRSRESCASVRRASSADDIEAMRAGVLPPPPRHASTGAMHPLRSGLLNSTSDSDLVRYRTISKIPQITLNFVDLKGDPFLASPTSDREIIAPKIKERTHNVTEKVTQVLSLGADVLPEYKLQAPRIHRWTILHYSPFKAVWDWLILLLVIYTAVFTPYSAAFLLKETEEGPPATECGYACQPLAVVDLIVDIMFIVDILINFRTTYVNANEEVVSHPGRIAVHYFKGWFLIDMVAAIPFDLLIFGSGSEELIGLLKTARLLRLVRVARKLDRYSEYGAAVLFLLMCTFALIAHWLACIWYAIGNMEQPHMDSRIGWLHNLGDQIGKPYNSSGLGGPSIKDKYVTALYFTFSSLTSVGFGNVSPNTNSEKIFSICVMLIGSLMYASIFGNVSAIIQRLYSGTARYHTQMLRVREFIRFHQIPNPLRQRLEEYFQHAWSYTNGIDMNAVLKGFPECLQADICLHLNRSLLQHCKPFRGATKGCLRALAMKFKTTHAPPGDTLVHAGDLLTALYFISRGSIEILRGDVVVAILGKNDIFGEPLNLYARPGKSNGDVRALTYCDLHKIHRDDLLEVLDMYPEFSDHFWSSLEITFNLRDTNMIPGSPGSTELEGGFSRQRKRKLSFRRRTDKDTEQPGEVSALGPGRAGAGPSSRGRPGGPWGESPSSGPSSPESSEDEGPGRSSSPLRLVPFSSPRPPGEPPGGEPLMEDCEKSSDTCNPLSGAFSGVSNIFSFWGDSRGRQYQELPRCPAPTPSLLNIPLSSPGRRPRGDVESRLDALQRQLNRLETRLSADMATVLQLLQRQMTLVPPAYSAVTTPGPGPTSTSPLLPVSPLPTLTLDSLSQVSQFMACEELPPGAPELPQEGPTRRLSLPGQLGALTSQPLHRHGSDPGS

The assay addresses human ether-à-go-go-related gene (hERG) potassium channel (human, UniProt Q12809). The assay is described as follows: primary screen, population patch clamp on CHO cells stably expressing hERG.
Turning to `Cc1ccc(S(=O)(=O)NNC(=O)Nc2cccc(F)c2)c(C)c1`, the “hERG current change (%, negative = inhibition) at 1uM” value is recorded as 9.93%.

As to `O=c1[nH]c2cc3c(cc2cc1C(c1nnnn1Cc1ccccc1)N1CCCCCC1)OCCO3` (centres unmarked), the “hERG current change (%, negative = inhibition) at 1uM” value is on record as -13.7%.

With `O=C(NCCc1ccc2c(c1)OCCO2)c1cccc(S(=O)(=O)N2CCCC2)c1`, the “hERG current change (%, negative = inhibition) at 1uM” value was found to be 8.06%.

For the compound `O=C(CCC(=O)N1CCN(c2ccccn2)CC1)Nc1nnc(C2CCCCC2)s1`, the “hERG current change (%, negative = inhibition) at 1uM” value is 11.2%.

On to `Cc1onc(C(N)=O)c1C(=O)Nc1ncc(C(F)(F)F)cc1Cl`, for which the “hERG current change (%, negative = inhibition) at 1uM” value came to 14%.

Regarding `CC(C)(C)c1cc(C(=O)NCCCn2ccnc2)cc(C(C)(C)C)c1.Cl`, the “hERG current change (%, negative = inhibition) at 1uM” value was determined as 13.1%.

Turning to `CCCCCCCCOC(=O)c1nc(Cl)c(Cl)c(N)c1Cl`, the “hERG current change (%, negative = inhibition) at 1uM” value is reported as -64.4%.

Turning to `O=c1[nH]c(CN2CCN(S(=O)(=O)c3ccc(Cl)cc3)CC2)nc2cc(Cl)ccc12`, the “hERG current change (%, negative = inhibition) at 1uM” value is recorded as 9.83%.

As for `CCn1c(COc2ccc(=O)n(-c3ccccc3)n2)n[nH]c1=S`, the “hERG current change (%, negative = inhibition) at 1uM” value is given as 18.8%.

`COC(=O)C1=C(c2ccc(-c3ccccc3)c(F)c2)C[C@@H]2CC[C@H]1N2C(=O)NCCc1ccccc1`: the “hERG current change (%, negative = inhibition) at 1uM” value was determined as 15.4%.

As for `O=S(=O)(c1ccc(NC(=S)N/N=C/c2ccc(O)c(O)c2)cc1)N1CCOCC1`, the “hERG current change (%, negative = inhibition) at 1uM” value is listed as 9.21%.

For the compound `Cc1cccc(C(=O)N(NC(=O)Oc2ccccc2)C(C)(C)C)c1`, the “hERG current change (%, negative = inhibition) at 1uM” value is -0.163%.

Regarding `O=C(Nc1ccc(S(=O)(=O)NCc2ccco2)cc1)c1ccc2ccccc2n1`, the “hERG current change (%, negative = inhibition) at 1uM” value is on record as 2.4%.

For the compound `O=C(c1ccccc1)c1ccc(N2CCN(C(=O)c3cccc(F)c3F)CC2)c(F)c1`, the “hERG current change (%, negative = inhibition) at 1uM” value was -4.18%.

Consider `COc1ccccc1-c1nn2c(C3COc4ccccc4O3)nnc2s1` (centres unmarked), for which the “hERG current change (%, negative = inhibition) at 1uM” value is -3.14%.

Turning to `Cc1ccn2c(C(=O)NNC(=O)Nc3ccc(Cl)cc3)c(C)nc2c1`, the “hERG current change (%, negative = inhibition) at 1uM” value is 14.6%.

`CC(OC(=O)c1cc(S(=O)(=O)N2CCOCC2)ccc1Br)C(=O)N1CCOCC1` (centres unmarked): the “hERG current change (%, negative = inhibition) at 1uM” value is on record as -0.764%.

Turning to `C=CCN(CC=C)Cc1ccc(C(=O)OC)o1`, the “hERG current change (%, negative = inhibition) at 1uM” value is reported as -3.84%.

In the case of `COC(=O)C(Cc1ccccc1)NC(=O)CNS(=O)(=O)c1ccc(Br)cc1` (centres unmarked), the “hERG current change (%, negative = inhibition) at 1uM” value is 0.383%.

Take `CCCc1nc2sc3c(c2c(=O)n1N)CCC3`: the “hERG current change (%, negative = inhibition) at 1uM” value is 5.93%.

As for `COc1cccc(CN(C(=O)c2ccccc2)C2CCS(=O)(=O)C2)c1` (centres unmarked), the “hERG current change (%, negative = inhibition) at 1uM” value was 14.2%.

`COCCn1c(SCC(=O)Nc2ccc(C)cc2C)nc2c(oc3ccccc32)c1=O`: the “hERG current change (%, negative = inhibition) at 1uM” value came out at 9.1%.

`Cc1ccc(CN2CCC(c3cc(-c4cccs4)n[nH]3)CC2)cc1`: the “hERG current change (%, negative = inhibition) at 1uM” value is -85.6%.

For the compound `Cc1cccc(NC(=O)c2ccc(NCCO)c([N+](=O)[O-])c2)n1`, the “hERG current change (%, negative = inhibition) at 1uM” value is -31.4%.

For `Cc1ccc(CNC(=O)C2CCCC2)cc1`, the “hERG current change (%, negative = inhibition) at 1uM” value turned out to be 10.4%.

For `Nc1c(C(=O)N2CCOCC2)sc2nc3c(cc12)CCCC3`, the “hERG current change (%, negative = inhibition) at 1uM” value amounted to 16%.

Consider `Cc1ccc(F)cc1NC(=O)Nc1cc(C(C)(C)C)nn1C`, for which the “hERG current change (%, negative = inhibition) at 1uM” value came out at 9.22%.

Consider `CSC(=NC#N)N1CCN(c2ccc([N+](=O)[O-])cc2)CC1`, for which the “hERG current change (%, negative = inhibition) at 1uM” value is recorded as -80.9%.

With `CC(C)[C@H](NC(N)=O)C(=O)Nc1ccc(OCc2ccccc2)cc1`, the “hERG current change (%, negative = inhibition) at 1uM” value is 4.06%.

Regarding `CCC(Oc1ccccc1)C(=O)Nc1ccccc1C(=O)N1CCOCC1` (centres unmarked), the “hERG current change (%, negative = inhibition) at 1uM” value came to 15.8%.

`CC(C)(C)NC(=O)Nc1ccc(Cn2cc(C(F)(F)F)ccc2=O)cc1`: the “hERG current change (%, negative = inhibition) at 1uM” value is recorded as 4.85%.

As for `Cc1ccc(-c2cc(C(=O)NCC3CCCO3)c3ccccc3n2)cc1C` (centres unmarked), the “hERG current change (%, negative = inhibition) at 1uM” value worked out at 5.51%.

Regarding `O=C(NNc1ccc(-c2csnn2)cc1)c1cc(Cl)cc(Cl)c1`, the “hERG current change (%, negative = inhibition) at 1uM” value came out at 6.05%.

As to `O=C(O)c1ccc(O)cc1O`, the “hERG current change (%, negative = inhibition) at 1uM” value turned out to be 6.46%.

Turning to `O=C(Nc1nc2ccc(S(=O)(=O)N3CCCCC3)cc2s1)c1ccncc1`, the “hERG current change (%, negative = inhibition) at 1uM” value is -24%.

In the case of `CCC(Sc1nnc(C)c(=O)[nH]1)C(=O)Nc1cccc2ccccc12` (centres unmarked), the “hERG current change (%, negative = inhibition) at 1uM” value stood at 14.3%.

Take `CCOc1ccc(Nc2cc(=O)n(C)c(=O)n2C)cc1`: the “hERG current change (%, negative = inhibition) at 1uM” value amounted to 10.2%.

As for `Cc1cccc(N=C2Sc3nc4c(C)c(C)ccc4cc3CN2CCN2CCOCC2)c1`, the “hERG current change (%, negative = inhibition) at 1uM” value was 17.5%.

`Cc1coc2cc3oc(=O)c(CCC(=O)NCCN4CCOCC4)c(C)c3cc12`: the “hERG current change (%, negative = inhibition) at 1uM” value turned out to be 3.81%.

Turning to `CC1=C(CC(=O)c2ccccc2)C(=O)c2ccccc2C1=O`, the “hERG current change (%, negative = inhibition) at 1uM” value is 4.26%.

`CC(C)(C)[C@H]1C=C(C(=O)NC2CC2)O[C@@H](OCCCCO)C1`: the “hERG current change (%, negative = inhibition) at 1uM” value is listed as 21%.

On to `Cn1cc(CNCCN2CCCCC2=O)c(-c2cccc(Cl)c2)n1`, for which the “hERG current change (%, negative = inhibition) at 1uM” value is reported as 8.56%.

Consider `NC(=O)CC(NC(=O)c1ccc(Br)cc1)c1ccc(NC2CCCCC2)c([N+](=O)[O-])c1` (centres unmarked), for which the “hERG current change (%, negative = inhibition) at 1uM” value was found to be 12.4%.

With `Cc1cc(NC(=O)CCC(=O)N(C(C(=O)NC(C)(C)C)c2ccccc2Cl)C(C)(C)C)no1` (centres unmarked), the “hERG current change (%, negative = inhibition) at 1uM” value is on record as 19.5%.

`COc1ccc(CC(=O)NCc2n[nH]c(=S)n2-c2ccc(Br)cc2)cc1`: the “hERG current change (%, negative = inhibition) at 1uM” value is listed as 13.6%.

`O=C(NCc1ccc(Cl)cc1)C1CCC(CNc2c(N3CCOCC3)c(=O)c2=O)CC1` (centres unmarked): the “hERG current change (%, negative = inhibition) at 1uM” value is 17.2%.

With `CC(C)(O)C#Cc1ccc(C(=O)N2CCN(c3ccc([N+](=O)[O-])cc3)CC2)cc1`, the “hERG current change (%, negative = inhibition) at 1uM” value is -16.8%.

Turning to `Cc1[nH]n(-c2ccc(Br)cc2)c(=O)c1/C=N/NC(=O)c1ccccc1`, the “hERG current change (%, negative = inhibition) at 1uM” value is 12.2%.

As for `COc1ccc(-c2noc(COc3ccc4c(c3)OCO4)n2)cc1OC`, the “hERG current change (%, negative = inhibition) at 1uM” value was -0.961%.

Regarding `COc1ccccc1CNC(=O)COC(=O)c1nc(Cl)ccc1Cl`, the “hERG current change (%, negative = inhibition) at 1uM” value was 8.06%.

`Cn1cc(C(=O)Nc2ccc(F)c(Cl)c2)cn1`: the “hERG current change (%, negative = inhibition) at 1uM” value came to 5.16%.

For the compound `CC1=C(C(=O)OCC2CCCCC2)C(c2ccc(O)cc2)NC(=O)N1` (centres unmarked), the “hERG current change (%, negative = inhibition) at 1uM” value was 13.2%.

Consider `CCCCN(CC)Cc1ccc(CNC(=O)Nc2ccc(F)cc2)o1`, for which the “hERG current change (%, negative = inhibition) at 1uM” value is reported as -12.4%.

For `CN(C(=O)COC(=O)CNC(=O)c1ccc(Cl)cc1Cl)c1ccccc1`, the “hERG current change (%, negative = inhibition) at 1uM” value came to 20.3%.

As to `CCOC(=O)CCNC(=O)N1CCC(CCC(=O)NCc2ccc(F)cc2)CC1`, the “hERG current change (%, negative = inhibition) at 1uM” value was 9.83%.

For `C=CCN(Cc1cc(OC)ccc1OC)S(=O)(=O)N(C)C`, the “hERG current change (%, negative = inhibition) at 1uM” value is 7.8%.
